Data from the RNAGym collection of RNA variant scans (doi:10.1093/nar/gkz1192).
The source gives no read counts; variants with many changes may rest on few reads.

B1: CPEB3 Ribozyme (parent)
chain: UAACAGGGGGCCACAGCAGAAGCGUUCACGUCGCAGCCCCUGUCAGAUUCUGGUGAAUCUGCGAAUUCUGCUGUAUAUCUC

Variants of: B1
Assay: self-cleavage, relative activity (ratio to wild type); higher = more cleavage; in vitro, sequencing
Method in brief: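 After error-prone PCR and barcoding, CPEB3 ribozyme mutant libraries were transcribed with T7 RNA polymerase at 37°C for 5 hours, then given 15 min with DNase I before an EDTA stop, and they cleaved during both steps. Reverse transcription with template switching preceded Illumina sequencing. Relative activity divides a variant's cleaved/total read fraction by the unmutated ribozyme's. At least 5 reads were required per variant, and three batches were averaged.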
Variant UAACAGGGGGCCACAGCAGAAGCGUUCGCGUCGCAGCCCCUGUCAGAUUCUGGUGAAUCUGCGAAUUCUGCGGUAUAACUC has a self-cleavage of 0.39.
Variant UAACAGGGGGCCACAGCAGAAGCGUUCGCGUCGCAGCCCCUGUCAGAUUCUGGUGAAUCUGCGAAUACUGCUGUAUACCUC has a self-cleavage of 0.21.
Work on UAACAGGGGGCCACAGCAGAAGCGUUCGCGUCGCAGCCCCUGUCAGAUUCUGGUGAAUCUGCGAAUUCUGCUGCAUAUUGC yielded a self-cleavage of 0.98.
In the case of UAACAGGGGGCCACAGCAGAAGCGUUCUCGUCGCGGCCCCAGCCAGAUUCUGGUGAAUCUGCGAAUUCUGCUGUAUAUCAC, the self-cleavage is reported as 0.12.
UAACAGGGGGCCACAGCAGAAGCGUUCUCGUCGCUGCCCCAGUCAGAUUCUGGCGAAUCUGCGAAUUCUGCUGUAUAUCUC showed a self-cleavage of 0.14.
In the case of UAACAGGGGGCCACAGCAGAAGCGUUCGCGUCGCAGCCCCUGUCAGAUUCUGGUGAAUCUGCGAACUCUGCUGUAUAACUC, the self-cleavage is reported as 0.18.
UAACAGGGGGCCACAGCAGAAGCGUUCUCGUCGCUGCCCCUGUCGGAUUCUGGUGAAUCCGCGAAUCCUGCUGUAGAUCUC showed a self-cleavage of 0.14.
UAACAGGGGGCCACAGCAGAAGCGUUCGCGUCGCAGCCCCUGUCAGAUUCUGGUGAAUCUGCGAAUUCAGCUGUAAAUCUC gave a self-cleavage of 0.44.
For UAACAGGGGGCCACAGCAGAAGCGUUCUCGUCGCGGCCCCAGCCAGACUCUGGUGAAUCUGCGAAUUCUGCUGUAUAUCAC, the self-cleavage was 0.16.
In the case of UAACAGGGGGCCACAGCAGAAGCGUUCGCGUCGCAGCCCCUGUCAGAUUCUGGUGAAUCUGCGAAAUCUGAUGUAUAUCUC, the self-cleavage is reported as 0.15.
UAACAGGGGGCCACAGCAGAAGCGUUCGCGUCGCAGCCCCUGUCAGAUUCUGGUGAAUCGGCGAAUUCUGCUGUAUAUCCC showed a self-cleavage of 0.16.
With UAACAGGGGGCCACAGCAGAAGCGUUCUCGUCGCUGCCCCCGUCAGAUUCUGGUGGAUCCGCGAGUCCUGCUGUAUAUCUC the self-cleavage was 0.06.
UAACAGGGGGCCACAGCAGAAGCGUUCUCGUCGCUGCCCAUGUCAGAUUCUGGUGAAUCUGCGAAUUCUGCUGUAUAUCUC gave a self-cleavage of 0.19.
UAACAGGGGGCCACAGCAGAAGCGUUCGCGUCGCAGCCCCUGUCAGAUUCUGGUGAAUCUGCGAAUUCAGCUGUAUAUCAC showed a self-cleavage of 0.19.
Work on UAACAGGGGGCCACAGCAGAAGCGUUCUCGUCGCAGCCCCUGUCGGAUUCUGGUGAGUCUGCGAAUUCCGCAGUAUAUCUC yielded a self-cleavage of 0.13.
UAACAGGGGGCCACAGCAGAAGCGUUCGCGUCGCAGCCCCUGUCAGAUUCUGGUGAAUCUGCGAAUUCCGCUGUAUAUCAC gave a self-cleavage of 0.29.
Work on UAACAGGGGGCCACAGCAGAAGCGUUCGCGUCGCAGCCCCUGUCAGAUUCUGGUGAAUCUGCGAAUUCUGCAGUAUAUCCC yielded a self-cleavage of 1.09.
With UAACAGGGGGCCACAGCAGAAGCGUUCUCGUCGCAGCCCCUGUCCGAUUCUGGUGUAUCUGCGAAUUCUGCAGUAAAUCUC the self-cleavage was 0.14.
For UAACAGGGGGCCACAGCAGAAGCGUUCGCGUCGCAGCCCCUGUCAGAUUCUGGUGAAUCUGCGAAUUCUGCCGCAUAUCUC, the self-cleavage was 0.77.
In the case of UAACAGGGGGCCACAGCAGAAGCGUUCUCGUCGCUGCCCCUGUCAGACUCUGGUGAAUCUGCGAAUUCUGCUGUAUAUCUC, the self-cleavage is reported as 0.11.
UAACAGGGGGCCACAGCAGAAGCGUUCUCGUCGCAGCCCCUGUCCGAUUCCGGUGAAUCUGCGAAUUCUGGUGUAUAUCUC showed a self-cleavage of 0.49.
In the case of UAACAGGGGGCCACAGCAGAAGCGUUCGCGUCGCAGCCCCUGUCAGAUUCUGGUGAAUCUGCGAAUUCUGCUGUAAAUCAC, the self-cleavage is reported as 0.86.
In the case of UAACAGGGGGCCACAGCAGAAGCGUUCUCGUCGCGGCCCCCGUCAGAUACUGGUGAAUCUGCGAAUUCUGCUGUAUAUCUC, the self-cleavage is reported as 0.93.
UAACAGGGGGCCACAGCAGAAGCGUUCUCGUCGCUGCCCCUGUCAGAUUCUGGCGAAUCUGCGAAUUCUGCUGUAUACCUC gave a self-cleavage of 0.12.
UAACAGGGGGCCACAGCAGAAGCGUUCGCGUCGCAGCCCCUGUCAGAUUCUGGUGAAUCUGCGAAUUCAGCAGUAUAUCUC showed a self-cleavage of 0.09.
UAACAGGGGGCCACAGCAGAAGCGUUCUCGUCGCGGCCCCUGUCAGAUUCUGGUGUAUCUGCGAAUUCUGCUGUAUAUCUC gave a self-cleavage of 0.99.
UAACAGGGGGCCACAGCAGAAGCGUUCUCGUCGCGGCCCCUGUCAGACUCUGGUGAAUCUGCGAAUUCUGCUGUAUAUCUC showed a self-cleavage of 0.45.
UAACAGGGGGCCACAGCAGAAGCGUUCGCGUCGCAGCCCCUGUCAGAUUCUGGUGAAUCUGCGAAUCCUGCUGUAUAACUC showed a self-cleavage of 0.14.
With UAACAGGGGGCCACAGCAGAAGCGUUCUCGUCGCUGCCCCUGUCGGAUUCUGGUGAAUCUGCGAAUUCGGCUGUAUAUCUC the self-cleavage was 0.16.
For UAACAGGGGGCCACAGCAGAAGCGUUCUCGUCGCUGCCCCUGUCAGAUUCUGGUGAAUCUGCGAAUUCUGCUGAAUAUCUC, the self-cleavage was 0.51.
With UAACAGGGGGCCACAGCAGAAGCGUUCUCGUCGCUGCCCCUGCCAGAUUCUGGUGAAUCUGCGAAUUCUGCUGUAUAUCUC the self-cleavage was 0.16.
UAACAGGGGGCCACAGCAGAAGCGUUCUCGUCGCUGCCCCUGUCAGAUUCUGGUGAAUCUGCGAAUUCUGCUGUAUAACUC showed a self-cleavage of 0.3.
UAACAGGGGGCCACAGCAGAAGCGUUCGCGUCGCAGCCCCUGUCAGAUUCUGGUGAAUCUGCGAAUUCUGCCGUAUAUCCC gave a self-cleavage of 0.95.
For UAACAGGGGGCCACAGCAGAAGCGUUCGCGUCGCAGCCCCUGUCAGAUUCUGGUGAAUCUGCGAAUUCUGCCGUACAUCUC, the self-cleavage was 0.99.
